Data as given in PubChem BioAssay AID488969 (Vanderbilt High Throughput Screening Facility, 2010).
“And” between values parts separate entries of the source, which are not always exact repeats. Equal entries are not always repeated. Whole data set: some 110,000 compounds, median “z-score” near -0.1, cut for the highest 2% near 2. The list shows a part of the results. The source made the active and inactive calls.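 Rule for the calls: active = z-score in the third read window above 3 or below -3; inactive = the rest.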

target: Metabotropic glutamate receptor 8 (Rattus norvegicus) (UniProt P70579); assay: mGluR8 Gi/Go-coupled signaling modulation – cell-based, rat, thallium flux, HTS, primary screen (AID 488969); details: HEK293 rat mGluR8, GIRK (G protein-gated inwardly rectifying potassium channel) thallium flux, FluoZin2; at 10 µM; stronger effect = higher value; submaximal glutamate (EC20) added with thallium
Sequence of UniProt P70579 (P70579 whole entry, looked up): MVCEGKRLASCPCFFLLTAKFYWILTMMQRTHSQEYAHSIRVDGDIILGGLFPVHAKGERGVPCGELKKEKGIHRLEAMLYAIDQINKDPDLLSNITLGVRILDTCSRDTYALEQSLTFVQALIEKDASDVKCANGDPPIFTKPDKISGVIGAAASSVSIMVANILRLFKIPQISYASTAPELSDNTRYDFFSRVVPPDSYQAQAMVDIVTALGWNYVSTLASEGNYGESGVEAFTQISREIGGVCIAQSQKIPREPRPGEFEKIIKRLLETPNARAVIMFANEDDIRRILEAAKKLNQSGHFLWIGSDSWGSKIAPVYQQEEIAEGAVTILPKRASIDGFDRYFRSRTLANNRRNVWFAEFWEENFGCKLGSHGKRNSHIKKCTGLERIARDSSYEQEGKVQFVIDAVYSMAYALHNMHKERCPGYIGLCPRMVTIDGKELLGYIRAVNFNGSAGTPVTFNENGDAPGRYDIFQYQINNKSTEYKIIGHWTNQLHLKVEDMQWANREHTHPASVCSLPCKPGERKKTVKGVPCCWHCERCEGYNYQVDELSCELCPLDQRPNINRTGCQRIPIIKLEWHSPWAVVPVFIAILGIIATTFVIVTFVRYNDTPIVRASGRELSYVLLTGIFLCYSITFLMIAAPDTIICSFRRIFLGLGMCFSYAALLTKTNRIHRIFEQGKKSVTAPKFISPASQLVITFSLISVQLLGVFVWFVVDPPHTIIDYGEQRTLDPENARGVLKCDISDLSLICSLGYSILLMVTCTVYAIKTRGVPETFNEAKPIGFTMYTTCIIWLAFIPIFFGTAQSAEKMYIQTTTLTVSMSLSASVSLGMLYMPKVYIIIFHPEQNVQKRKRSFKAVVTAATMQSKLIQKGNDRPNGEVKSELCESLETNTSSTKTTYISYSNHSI

Point of comparison: `Cc1cc(C(=O)Cn2nnc(-c3ccc(Cl)cc3)n2)c(C)n1CC1CCCO1` (stereo not given), z-score -0.156. Against it:
- O=C1ON=C(c2ccccc2)/C1=C/c1ccc(OS(=O)(=O)c2ccccc2)cc1 — higher, 0.291
- Cc1nccn1S(=O)(=O)c1cc([N+](=O)[O-])ccc1Cl — lower, -0.453
- O=C(NCCc1cccs1)C1CC(c2c(Cl)cccc2Cl)=NO1 (stereo not given) — lower, -0.19
- CC(C)CC(=O)NC(=S)Nc1ccccc1F — higher, 0.878
- CC(=O)c1cc(-c2ccccc2)n(CCC(=O)NC2CCCCCCC2)c1C — lower, -0.644
- Cc1nnc(Sc2nc3c(c(=O)[nH]c(=O)n3C)n2CCCc2ccccc2)s1 — higher, 0.0127
- CC(C)NC(=O)c1cc(-c2ccc(Br)cc2)on1 — higher, 1.31
- Cc1c(Cl)cccc1NC(=O)c1cccc(NC(=O)CCC(=O)O)c1 — lower, -0.284
- Cc1nc(Oc2cccc(Cl)c2)c2oc3ccccc3c2n1 — higher, 0.314
- COc1ccc(/C=N/NC(=O)c2nn(-c3ccc(C)c(C)c3)c(=O)c3ccccc23)cc1 — lower, -0.186
- CCOCCCNC(=O)CN1C(=O)CSc2cc(S(=O)(=O)N3CCCCCC3)ccc21 — lower, -0.263
- C=CCOc1cccc(C2C(C(=O)c3ccco3)=C(O)C(=O)N2CCN(CC)CC)c1 (stereo not given) — higher, -0.0982
- CN(Cc1ccccc1)Cc1nc2c([nH]1)c(=O)[nH]c(=O)n2C — higher, 0.288
- Cc1nn(-c2nc(-c3ccco3)cc(C(F)(F)F)n2)c(C)c1Br — lower, -0.316
- COc1cc(/C=C2\SC(=S)N(Nc3ccccc3)C2=O)ccc1O — higher, 0.0927
- O=C(Nc1ccc2c(c1)C(=O)N(CC1CCCO1)C2=O)c1ccccc1Br (stereo not given) — higher, 0.102
- COc1ccc(OC)c(Nc2nc(-c3sc(NC(=O)CC(C)C)nc3C)cs2)c1 — lower, -0.309
- Cc1noc(/C=C/c2ccc(-c3ccccc3Cl)o2)c1[N+](=O)[O-] — lower, -0.239
- Cc1ccc2c(c1)NC(=O)C(CC(=O)NCCCN1CCCC1=O)O2 (stereo not given) — lower, -1.38
- COc1ccc(-c2nc(C#N)c(N3CCCCCC3)o2)cc1 — lower, -0.424
- COc1ccc(CNc2nc(SC)n[nH]2)cc1OC — lower, -1.24
- Cc1c(Cl)ccc2c1NC(=O)[C@]21[C@@H]2C(=O)N(Cc3ccccc3)C(=O)[C@@H]2[C@@H]2CCCN21 — higher, 1.19
- CC(=O)Nc1ccc(S(=O)(=O)N2CCN(C(=O)Cc3ccccc3)CC2)cc1 — higher, 0.571
- COc1ccc(-c2nnc(SCC(=O)c3cccs3)o2)c(OC)c1 — higher, 0.000783
- CCOC(=O)C1CCCN(c2c(NCCCN(C)c3ccccc3)c(=O)c2=O)C1 (stereo not given) — lower, -0.542
- S=C(NCc1ccco1)Nc1ccc(Cl)cc1Cl — higher, 0.725
- c1ccc2c(C[n+]3csc4ccccc43)cccc2c1 — higher, 0.923
- COc1ccc(NC(=O)CN(C)S(=O)(=O)c2ccccc2)c([N+](=O)[O-])c1 — lower, -0.198
- CNC(=O)Cn1nc(C)c2ccccc2c1=O — higher, 0.0979
- O=C(NNC1=NCCCCC1)c1ccccc1 — lower, -0.78
- CCN(CC)c1ccc(/C=N/NS(=O)(=O)c2ccc(CNC(C)=O)cc2)cc1 — higher, -0.119
- CCn1cc(C(=O)N[C@H](C)c2ccccc2)c(=O)c2cc(F)c(N3CCN(C)CC3)cc21 — lower, -0.24
- CCC(C)Nc1nc(SC(C(C)=O)C(C)=O)nc(N(C)C)n1 (stereo not given) — higher, 0.136
- O=C(Nc1cc(C(F)(F)F)ccc1N1CCCCC1)c1ccc(Br)o1 — higher, -0.139
- COc1ccc2[nH]c(=O)c(CN(Cc3ccco3)Cc3nnnn3Cc3ccccc3)cc2c1 — lower, -0.688
- COc1ccc(OC)c(C2=Nn3c(nnc3-c3cc(OC)c(OC)c(OC)c3)SC2)c1 — lower, -0.884
- O=C(NCCCNCc1ccccc1)c1ccc(/C=N/O)nc1 — higher, 0.298
- COc1ccc(N/C=C/C(=O)c2sc(-c3ccccc3)nc2C)cc1 — higher, -0.0681
- O=C(NNC(=S)NC(=O)c1cccnc1)c1ccccc1 — higher, 0.252
- N#CC1=C(N)Oc2n[nH]c(-c3cccs3)c2C1c1cccs1 (stereo not given) — lower, -1.91
- N/C(=N\OC(=O)Cc1ccccc1)c1ccccn1 — higher, -0.0784
- CCOC(=O)c1c(-c2ccc(OC)cc2)csc1NC(=O)CNCc1ccco1 — higher, -0.118
- CC(C)OC(=O)c1cn(-c2ccccc2)nc1-c1ccc2c(c1)OCCO2 — higher, -0.0562
- Cc1ccc(S(=O)(=O)NC(C)C(=O)NC2CCCCCC2)cc1 (stereo not given) — higher, -0.00974
- CCN(Cc1ccccc1)C(=O)c1cc2c(=O)oc3ccc(C)cc3c2s1 — lower, -0.184
- O=C(Oc1ccccc1-c1nnco1)c1ccccc1 — higher, 0.732
- O=C(NCc1cccnc1)c1ccc(CS(=O)(=O)c2ccc(Br)cc2)o1 — higher, -0.146
- CC(C)c1ccc(N2CCN(C(=O)c3ccccc3NC(=O)/C=C\C(=O)O)CC2)cc1 — higher, 0.705
- COC(=O)/C(NC(C)=O)=C(\C)c1ccc(Cl)cc1 — higher, 0.442
- CCOc1ccc(-c2cc(CCCC(=O)NCc3ccc(C)cc3)no2)cc1 — higher, 0.969
- CC(C)C(NC(=O)C1CCCCC1)C(=O)N1CCN(c2ccc(F)cc2)CC1 (stereo not given) — lower, -0.304
- CCN(CC)Cc1c(O)ccc2c(C)c(CC(=O)OC)c(=O)oc12 — higher, 0.0516
- CCC(C)(C(=O)NC1CCCC1)N(Cc1ccco1)C(=O)Cc1cccs1 (stereo not given) — higher, 0.0511
- Cn1c(=O)n(C)c2cc(CNc3ccc(N4CCOCC4)c(C(=O)O)c3)ccc21 — higher, 0.0129
- O=C(COc1ccc([N+](=O)[O-])cc1)NCc1ccccc1 — higher, -0.000174
- N#Cc1nc(COc2cccc(Cl)c2)oc1N1CCCC1 — lower, -0.382
- CCOc1ccc(N(Cc2cc3cc(OC)ccc3[nH]c2=O)C(=O)C2CCCO2)cc1 (stereo not given) — higher, 0.195
- CC1(C)Cc2c(C#N)c(NCC3CCCO3)nc(-c3ccco3)c2CO1 (stereo not given) — lower, -1.48
- CCOC(=O)C1=C(C)OC(N)=C(C#N)C1c1ccc(C)o1 (stereo not given) — higher, -0.127
- Cc1ccc(OCCNS(=O)(=O)c2ccc(N3CCCC3=O)cc2)cc1C — higher, -0.0565
- CS(=O)(=O)N(Cc1ccc(Cl)cc1)c1ccc(C(=O)N/N=C/c2cc3ccccc3nc2Cl)cc1 — higher, 0.209
- CCCC1C(c2ccc(OC)cc2)C(C#N)(C#N)C2(C#N)CC1(N)NC2=O (stereo not given) — lower, -1.46
- O=C(Nc1ccccc1)N(Cc1ccccc1)CC(O)C(F)(F)F (stereo not given) — higher, 0.128
- COC(=O)c1ccccc1OCCCCN1CC(C)OC(C)C1 (stereo not given) — lower, -0.352
- Cc1ccc(OCc2ccoc2C(=O)O)cc1C — lower, -0.755
- Cc1ccc(CN2CCCNC2=O)cc1 — higher, 0.0901
- Cc1cccc(NC(=S)NCC(c2cccnc2)N(C)C)c1C (stereo not given) — higher, 0.024
- CSc1cccc(NC(=O)C2CCN(S(C)(=O)=O)CC2)c1 — higher, -0.0146
- CSc1ccc(C#N)cc1NC(=O)c1cccc(Cl)c1 — lower, -0.253
- CCOc1ccccc1C(=O)Nc1cc(Cl)ccc1O — lower, -1.29
- CCc1cc(C(=O)OC)c(NC(=O)CC2NCCNC2=O)s1 (stereo not given) — lower, -0.198
- N#Cc1c2nc3ccccc3nc2n2cc(NC(=O)c3ccc(F)cc3)ccc12 — higher, 0.0599
- COc1ccc(NC(=O)c2cc(F)cc(F)c2)cc1Cl — lower, -0.465
- CNC(=O)c1ccccc1-c1ccccc1 — lower, -0.224
- C/C(CC1CC(COCCC(C)C)OC1=O)=N\NC(N)=S (stereo not given) — lower, -0.19
- O=C(CSc1nc2ccccc2o1)N1CCN(c2ccccc2)CC1 — lower, -0.672
- O=C(NN1CCOCC1)c1ccc(Cl)cc1 — lower, -0.16
- N#C/C(=C\c1cc([N+](=O)[O-])c(N2CCOCC2)cc1N1CCOCC1)c1nc2ccccc2[nH]1 — lower, -0.756
- Cc1nn(Cc2ccccc2)c(C)c1C(=O)NCCN1C(=O)S/C(=C\c2ccc(F)cc2)C1=O — higher, 0.0396
- [O-][n+]1cccc2ncc3cscc3c21 — higher, 0.0114
- CCCC(=O)c1c[nH]c(C(=O)NCc2ccco2)c1 — higher, 0.568
- Cc1ccc(OC(=O)c2cccc(C(=O)Oc3ccc(C)cc3)n2)cc1 — higher, 1.1
- COc1ccc(-c2nnc(SCC(=O)NCCc3ccccc3)o2)cc1 — higher, 0.026
- CC(C)(C)n1ncc(Oc2ccccc2[N+](=O)[O-])c(Cl)c1=O — higher, -0.0954
- CCC(=O)c1c[nH]c(C(=O)NCc2ccco2)c1 — higher, 0.111
- Cc1cc(C)c(NS(=O)(=O)c2ccc(NC(=O)/C=C/C(=O)O)cc2)c(C)c1 — higher, -0.0619
- O=C(c1ccc(Cl)cc1)c1ccc(CN2C(=O)c3ccccc3C2=O)o1 — lower, -0.216
- CCOc1ccc(-n2c(=O)c3sccc3n(CC(=O)NCc3ccco3)c2=O)cc1 — lower, -0.769
- CCOC(=O)N1CCC2(CC1)C(C#N)=C(N)Oc1c2sc2nc(C)cc(C)c12 — lower, -0.369
- O=C(O)c1nc(N2CCCC2)ncc1Cl — lower, -0.485
- O=C(Nc1ccc2c(c1)OCCO2)c1cccc(S(=O)(=O)N2CCCCC2)c1 — lower, -0.2
- COc1ccccc1C1(CC(=O)O)CCOC(C(C)C)C1 (stereo not given) — higher, 0.0693
- CCCCNC(=O)OCCNC(=O)NC — higher, 0.433
- COc1ccc(N(CC(=O)NC2CCCC2)S(=O)(=O)c2c(C)[nH]c(=O)[nH]c2=O)cc1 — higher, -0.0214
- CCOc1cc(CNc2ccc3c(c2)OCCO3)cc(Br)c1OCC(N)=O — lower, -0.258
- CC/C(=N\n1nnnc1Nc1ccccc1)c1ccccc1 — lower, -0.359
- Cc1cccc(-n2c(-c3csc4ccccc34)n[nH]c2=S)c1 — higher, 2.62
- CCCN(CCC)S(=O)(=O)c1ccc(NC(=O)COc2ccccc2)cc1 — lower, -1.33
- O=S(=O)(CCc1nc2ccccc2o1)c1ccc2ccccc2c1 — higher, 0.276
- COc1ccc(/C=N/Nc2ccc(C(F)(F)F)cc2[N+](=O)[O-])cc1 — higher, 0.00171
- CN(CC(=O)NC1CCCCCC1)S(=O)(=O)c1ccc2c(c1)n(C)c(=O)c(=O)n2C — higher, 0.109
- COc1ccc(Cn2c(O)c(C=Nc3ccc(C)cc3)c3ccccc3c2=O)cc1 — higher, 0.472
- COC(=O)CCS(=O)(=O)c1ccc(Cl)c(Cl)c1 — lower, -0.294
- CC(C)Sc1cc(N2CCCC2)nc(-c2ccc(F)cc2)n1 — lower, -0.241
- CC1CCCC(C)N1C(=O)Cc1ccccc1 (stereo not given) — higher, 0.237
- COCCCNC(=O)CCn1c(=O)c2ccccc2n(CC(=O)Nc2cc(Cl)ccc2C)c1=O — higher, -0.0525

`CC1(C)Cc2ccccc2C(/C(=N\Nc2cccc(Cl)c2)C(N)=O)=N1` was tested, and the z-score was active: 3.23.
`O=C(O)CC(=O)NC12CC3CC(CC(C3)C1)C2` was tested, and the z-score was -0.251 and -0.244.
`CC1(C)CC(=O)c2c(noc2-c2ccccc2)C1` was tested, and the z-score was active: 3.63.
